T1: human GPA33 expressed on HEK293STF cells (EGFP-human GPA33 expression vector, ORIGENE RG210225) (human, UniProt Q99795 22-319)
T1 sequence (looked up): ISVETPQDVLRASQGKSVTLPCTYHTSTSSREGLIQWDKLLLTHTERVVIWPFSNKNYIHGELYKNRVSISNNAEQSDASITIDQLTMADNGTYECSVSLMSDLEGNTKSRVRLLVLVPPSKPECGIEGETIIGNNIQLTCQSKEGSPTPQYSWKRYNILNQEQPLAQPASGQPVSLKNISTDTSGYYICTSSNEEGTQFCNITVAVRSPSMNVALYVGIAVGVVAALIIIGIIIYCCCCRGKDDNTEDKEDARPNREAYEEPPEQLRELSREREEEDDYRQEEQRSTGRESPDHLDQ

T2: human GPA33 expressed on CHO-K1 cells (hGPA33-expressing cells co-expressing GFP) (human, UniProt Q99795 22-319)
T2 construct: whole, on cells; CHO-K1 transfected with an hGPA33 expression vector (ORIGENE) co-expressing GFP
T2 sequence (looked up): T1 sequence (looked up)

T3: mouse GPA33 expressed on CHO-K1 cells (mGPA33-expressing cells) (mouse, UniProt Q9JKA5 22-319)
T3 construct: whole, on cells
T3 sequence (looked up): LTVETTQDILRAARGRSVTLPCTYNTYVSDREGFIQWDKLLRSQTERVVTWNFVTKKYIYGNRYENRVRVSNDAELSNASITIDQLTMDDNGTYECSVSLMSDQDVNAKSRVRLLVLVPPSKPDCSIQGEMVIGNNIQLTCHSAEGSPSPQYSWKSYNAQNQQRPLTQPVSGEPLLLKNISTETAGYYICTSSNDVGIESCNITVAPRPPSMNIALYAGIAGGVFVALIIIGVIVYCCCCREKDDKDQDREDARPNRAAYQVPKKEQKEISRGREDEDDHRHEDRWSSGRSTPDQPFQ

T4: mouse GPA33 recombinant protein (C-terminal His tag fusion protein, abcam) (mouse, UniProt Q9JKA5 22-235, limits assumed)
T4 construct: Bought recombinant protein (abcam); also called mGPA33
T4 sequence (looked up): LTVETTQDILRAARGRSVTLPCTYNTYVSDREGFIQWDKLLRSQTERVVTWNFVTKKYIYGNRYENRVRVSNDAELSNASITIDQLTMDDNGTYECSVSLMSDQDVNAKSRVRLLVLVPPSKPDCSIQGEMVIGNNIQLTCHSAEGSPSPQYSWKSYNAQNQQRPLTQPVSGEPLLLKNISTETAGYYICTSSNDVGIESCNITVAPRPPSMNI

T5: human GPA33 recombinant protein (C-terminal His tag fusion protein, abcam) (human, UniProt Q99795 22-235, limits assumed)
T5 construct: Bought recombinant protein (abcam); also called hGPA33
T5 sequence (looked up): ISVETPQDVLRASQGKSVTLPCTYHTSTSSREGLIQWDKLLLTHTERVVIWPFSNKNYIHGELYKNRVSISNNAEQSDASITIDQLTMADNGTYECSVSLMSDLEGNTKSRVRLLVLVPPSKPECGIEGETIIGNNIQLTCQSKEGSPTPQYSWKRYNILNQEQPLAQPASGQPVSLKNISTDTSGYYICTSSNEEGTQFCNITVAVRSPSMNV

B1: G9-R1CRD-His (other)
chain: QVQLVQSGGGLVKPGGSLRLSCAASGFTFSNYNMNWVRQAPGKGLEWVSSISSSGDFMYYADSVKGRFTISRDDAKNSLYLQMNSLRAEDTAVYYCAREGPGTPFDYWGQGTLVTVSSGGGGSGGGGSGSTGS[about 100 residues not written out]GGSGGSISAEGSQACAKGCELCSEVNGCLKCSPKLFILLERNDIRQVGVCLPSCPPGYFDARNPDMNKCIKCKIEHCEACFSHNFCTKCKEGLYLHKGRCYPACPEGSSAANGTMECSSPAHHHHHHGA
B2: GPA33-2RC9 cloned scFv phage (scFv)
scFv: QVQLVQSGGGLVKPGGSLRLSCAASGFTFSNYNMNWVRQAPGKGLEWVSSISSSGDFMYYADSVKGRFTISRDDAKNSLYLQMNSLRAEDTAVYYCAREGPGTPFDYWGQGTLVTVSSGGGGSGGGGSGSTGS[about 100 residues not written out]
notes: also called G9
B3: GPA2RC9-Fc (anti-GPA33 single-chain Fv-Fc, scFv linked to human IgG1-Fc) (Fc fusion)
chain: QVQLVQSGGGLVKPGGSLRLSCAASGFTFSNYNMNWVRQAPGKGLEWVSSISSSGDFMYYADSVKGRFTISRDDAKNSLYLQMNSLRAEDTAVYYCAREGPGTPFDYWGQGTLVTVSSGGGGSGGGGSGSTGS[about 100 residues not written out][about 250 residues not written out]
notes: also called 2RC9 scFv-Fc; 2RC9 single-chain Fv-Fc
B4: R1CRD-G9-His (other)
chain: ISAEGSQACAKGCELCSEVNGCLKCSPKLFILLERNDIRQVGVCLPSCPPGYFDARNPDMNKCIKCKIEHCEACFSHNFCTKCKEGLYLHKGRCYPACPEGSSAANGTMECSSGGGGSGGGGSGGGGSQVQLVQSGGGLVKPGGSLRLSCAASGFTFSNYNMNWVRQAPGKGLEWVSSISSSGDFMYYADSVKGRFTISRDDAKNSLYLQMNSLRAEDTAVYYCAREGPGTPFDYWGQGTLVTVSSGGGGSGGGGSGSTGS[about 100 residues not written out]HHHHHHGA
B5: G9-R4CRD-His (other)
chain: QVQLVQSGGGLVKPGGSLRLSCAASGFTFSNYNMNWVRQAPGKGLEWVSSISSSGDFMYYADSVKGRFTISRDDAKNSLYLQMNSLRAEDTAVYYCAREGPGTPFDYWGQGTLVTVSSGGGGSGGGGSGSTGS[about 100 residues not written out]GGSGGSGGNCTGCIICSEENGCSTCQQRLFLFIRREGIRQYGKCLHDCPPGYFGIRGQEVNRCKKCGATCESCFSQDFCIRCKRQFYLYKGKCLPTCPPGTLAHQNTRECQGHHHHHHGA
B6: G9-R1CRD-GS3-Fcm (Fc fusion)
chain: QVQLVQSGGGLVKPGGSLRLSCAASGFTFSNYNMNWVRQAPGKGLEWVSSISSSGDFMYYADSVKGRFTISRDDAKNSLYLQMNSLRAEDTAVYYCAREGPGTPFDYWGQGTLVTVSSGGGGSGGGGSGSTGS[about 100 residues not written out]GGSGGSISAEGSQACAKGCELCSEVNGCLKCSPKLFILLERNDIRQVGVCLPSCPPGYFDARNPDMNKCIKCKIEHCEACFSHNFCTKCKEGLYLHKGRCYPACPEGSSAANGTMECSSGGGGSGGGGSGGGGSEPKSADKTHTCPPCPAPEAEGAPSVFLFPPKPKDTLMISRTPEVTCVVVDVSHEDPEVKFNWYVDGVEVHNAKTKPREEQYNSTYRVVSVLTVLHQDWLNGKEYKCAVSNKALPASIEKTISKAKGQPREPQVYTLPPSREEMTKNQVSLTCLVKGFYPSDIAVEWESNGQPENNYKTTPPVLDSDGSFFLYSKLTVDKSRWQQGNVFSCSVMHEALHNHYTQKSLSLSPGK
B7: G9-R4CRD-GS3-Fcm (Fc fusion)
chain: QVQLVQSGGGLVKPGGSLRLSCAASGFTFSNYNMNWVRQAPGKGLEWVSSISSSGDFMYYADSVKGRFTISRDDAKNSLYLQMNSLRAEDTAVYYCAREGPGTPFDYWGQGTLVTVSSGGGGSGGGGSGSTGS[about 100 residues not written out]GGSGGSGGNCTGCIICSEENGCSTCQQRLFLFIRREGIRQYGKCLHDCPPGYFGIRGQEVNRCKKCGATCESCFSQDFCIRCKRQFYLYKGKCLPTCPPGTLAHQNTRECQGGGGGSGGGGSGGGGSEPKSADKTHTCPPCPAPEAEGAPSVFLFPPKPKDTLMISRTPEVTCVVVDVSHEDPEVKFNWYVDGVEVHNAKTKPREEQYNSTYRVVSVLTVLHQDWLNGKEYKCAVSNKALPASIEKTISKAKGQPREPQVYTLPPSREEMTKNQVSLTCLVKGFYPSDIAVEWESNGQPENNYKTTPPVLDSDGSFFLYSKLTVDKSRWQQGNVFSCSVMHEALHNHYTQKSLSLSPGK

Assays:
[1] = target: T1, human GPA33 expressed on HEK293STF …; assay: cell-based or functional assay
[2] = target: T1, human GPA33 expressed on HEK293STF …; assay: cell-based or functional assay; remark: listed apart in the source
[3] = target: T2, human GPA33 expressed on CHO-K1 cells …; assay: FACS, cloned phage on GPA33-expressing CHO-K1 cells
[4] = target: T3, mouse GPA33 expressed on CHO-K1 cells …; assay: as above
[5] = target: T4, mouse GPA33 recombinant protein …; assay: SPR, Biacore T200, 25°C, GPA33-His amine-coupled on CM5, scFv-Fc as analyte, 1:1 binding model
[6] = target: T5, human GPA33 recombinant protein …; assay: as above

| Binder | EC50(GPA33) (nM), Wnt/β-catenin reporter in 293STF cells expressing GPA33 [2] | EC50(MOG)/ EC50(GPA33) [2] | also measured |
| --- | --- | --- | --- |
| B1 | 0.008 nM | 3240 | fold higher Wnt/β-catenin signaling promotion activity than Rspo1FL-Fc, by EC50(GPA33) [1]: 119 times |
| B2 |  |  | binding result [3]: binds; binding result [4]: binds |
| B3 |  |  | Kd [5]: 14.3 nM; Kd [6]: 3.6 nM |
| B4 | 0.028 nM | 414 |  |
| B5 | 0.011 nM | 152 |  |
| B6 | 0.04 nM | > 750 |  |
| B7 | 0.016 nM | 36.3 |  |

Source: patent EP4636087A1 (Kagoshima University, dated 2024)
